Reference: PubChem BioAssay AID504339 (National Center for Advancing Translational Sciences (NCATS), 2011)
Values joined by “and” are separate entries in the source; they are usually repeats but may differ in a detail not shown here. Identical values can stand only once. Screen size: about 390,000 compounds; about 17,000 (4.4%) were called active. This list was built around the results that the source calls inconclusive (neither active nor inactive); the mix of calls is not that of the screen. The call rests on the fitted dose curve; in most records, active means well fitted inhibition curve with a large enough effect; inconclusive means small, poorly fitted or top-dose-only effect; inactive means no such curve, though single readings can be large or run the other way. Potencies beside an inconclusive call are fits to weak or partial responses and may not hold up.

biological target: Lysine-specific demethylase 4A (Homo sapiens) (UniProt O75164); test: qHTS Assay for Inhibitors of JMJD2A-Tudor Domain; settings: AlphaScreen JMJD2A-Tudor / H3K4me3 peptide binding; activity change, negative = inhibition: at 114 µM (top of the series); further: nearly all actives have a fitted effect of over 50% in size
UniProt O75164, sequence (O75164 whole entry, looked up, the tested form may be a part): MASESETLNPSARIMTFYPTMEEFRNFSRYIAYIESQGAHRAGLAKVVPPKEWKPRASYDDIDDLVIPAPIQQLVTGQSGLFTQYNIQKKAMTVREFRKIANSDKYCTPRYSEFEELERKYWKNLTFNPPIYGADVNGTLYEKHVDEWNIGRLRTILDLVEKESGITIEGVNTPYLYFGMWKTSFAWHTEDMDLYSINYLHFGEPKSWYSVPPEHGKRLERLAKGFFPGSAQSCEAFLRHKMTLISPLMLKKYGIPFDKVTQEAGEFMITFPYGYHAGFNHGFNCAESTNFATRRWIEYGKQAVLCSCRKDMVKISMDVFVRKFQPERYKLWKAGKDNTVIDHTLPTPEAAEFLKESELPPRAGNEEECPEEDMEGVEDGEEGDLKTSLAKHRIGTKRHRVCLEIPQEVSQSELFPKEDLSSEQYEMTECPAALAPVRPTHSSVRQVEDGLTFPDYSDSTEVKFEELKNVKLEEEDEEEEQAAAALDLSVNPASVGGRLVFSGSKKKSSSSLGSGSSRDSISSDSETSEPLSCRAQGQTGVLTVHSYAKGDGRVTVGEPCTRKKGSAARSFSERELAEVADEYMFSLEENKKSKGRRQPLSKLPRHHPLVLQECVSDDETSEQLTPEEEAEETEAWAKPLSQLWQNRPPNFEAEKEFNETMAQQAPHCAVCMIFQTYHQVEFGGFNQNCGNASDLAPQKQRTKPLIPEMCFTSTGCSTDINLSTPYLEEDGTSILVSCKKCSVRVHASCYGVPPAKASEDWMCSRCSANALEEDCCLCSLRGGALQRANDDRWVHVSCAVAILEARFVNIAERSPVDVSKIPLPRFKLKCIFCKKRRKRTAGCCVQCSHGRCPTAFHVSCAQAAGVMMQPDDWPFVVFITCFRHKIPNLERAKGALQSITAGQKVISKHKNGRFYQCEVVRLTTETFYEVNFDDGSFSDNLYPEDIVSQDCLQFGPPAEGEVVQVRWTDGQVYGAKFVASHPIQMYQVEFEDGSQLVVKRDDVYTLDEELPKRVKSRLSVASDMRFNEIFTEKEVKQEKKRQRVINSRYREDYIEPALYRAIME
On the % scale 0 is the no-effect control and ±100 the full control effect; potency means the concentration at half of the fitted maximal effect; tags describe the fitted curve by direction and shape.

| SMILES | Potency | activity change, negative = inhibition |
| --- | --- | --- |
| C=CCNS(=O)(=O)c1cc2c3c(c1)CCN3C(=O)CC2 | inconclusive: 50.1 µM [inhibitor, partial curve] | – |
| O=[N+]([O-])c1ccccc1C1Nc2cccc3cccc(c23)N1 | active: 39.8 µM | – |
| Cc1n[nH]c(=O)nc1NCc1ccccc1 | inactive | – |
| O=C(NCc1ccccc1)c1nc(-c2ccc(Cl)cc2)n2c1CCCCC2 | active: 22.4 µM | – |
| CCOCCn1c(SCCCc2ccccc2)nc2c1c(=O)[nH]c(=O)n2C | inconclusive: 89.1 µM [inhibitor, partial curve] | – |
| Cn1c(=O)c(Nc2ccc(O)cc2)c2c3c(cccc31)C(=O)c1ccccc1-2 | active: 7.94 µM | – |
| CN1CCN(NC(=S)Nc2ccc(OC(F)F)cc2)CC1 | inconclusive: 28.2 µM [inhibitor, single point] | – |
| COCCn1c(C)cc(C2=NNC(=NC(C)(C)C)SC2)c1C | inconclusive: 79.4 µM [inhibitor, partial curve] | – |
| Cc1nc(CSc2ccc(Cl)cc2)cc(N2CCOCC2)n1 | inactive | – |
| O=C(CSc1nc(C(F)(F)F)cc(=O)[nH]1)N1CCC(Cc2ccccc2)CC1 | inconclusive: 63.1 µM [inhibitor, partial curve, poor fit] | – |
| O=C(CSc1nnc(NC(=O)C2CCC2)s1)NC1CC1 | inconclusive: 79.4 µM [inhibitor, single point] | – |
| CNc1nc(-c2ccc3c(c2)CCN3C(=O)c2ccccc2C)cs1 | inconclusive: 79.4 µM [inhibitor, partial curve] | – |
| CCOC(=O)c1c(-n2c(C)cc(C=O)c2C)sc2c1CCCC2 | active: 56.2 µM | – |
| C/C(Cn1cnc([N+](=O)[O-])n1)=N\NC(=O)c1ccc(Br)cc1 | inconclusive: 31.6 µM [inhibitor, partial curve] | – |
| CCOc1ccc(CCNC(=O)c2nn(C)c3c2CSc2ccc(C)cc2-3)cc1OCC | inconclusive: 63.1 µM [inhibitor, partial curve, poor fit] | – |
| CC1=C(C(N)=O)C(c2ccccn2)n2nc(SCc3ccccc3)nc2N1 (stereo unspecified) | inactive | – |
| O=c1ccnc(SCCc2ccc([N+](=O)[O-])cc2)[nH]1 | inactive | – |
| Cc1nc2ccccn2c1C(=O)N/N=C/c1cc(C)n(-c2ccc(Cl)cc2)c1C | inconclusive: 44.7 µM [inhibitor, partial curve] | – |
| COc1cccc(C2c3c(ncn(-c4ccccc4OC)c3=N)Oc3ccc4ccccc4c32)c1 (stereo unspecified) | active: 56.2 µM | – |
| CC(C)Nc1ccc(C(CC(N)=O)NC(=O)c2ccccc2)cc1[N+](=O)[O-] (stereo unspecified) | inconclusive: 22.4 µM [inhibitor, full curve, poor fit] | – |
| COc1ccc(-c2csc3nc(-c4ccc(C)cc4)oc(=O)c23)cc1OC | inconclusive: 35.5 µM [inhibitor, partial curve] and inconclusive: 31.6 µM [inhibitor, partial curve, poor fit] | – |
| Cc1ccc(-n2c(SCC(=O)OC(C)C)nnc2-c2ccccn2)cc1 | active: 50.1 µM | – |
| CC(Sc1nc2cc([N+](=O)[O-])ccc2n1-c1ccc(F)cc1)C(=O)NCc1ccc2c(c1)OCO2 (stereo unspecified) | inconclusive: 56.2 µM [inhibitor, partial curve] | – |
| CCCOc1cccc(C(=O)N2CCCCC2CCN2CCCCC2)c1 (stereo unspecified) | inactive | – |

| SMILES | Potency | activity change, negative = inhibition |
| --- | --- | --- |
| Cc1ccc(CN2CCN(c3cccc4[nH]ccc34)CC2)cc1 | inconclusive: 56.2 µM [inhibitor, partial curve] | – |
| Cc1ccc(CN2C(=O)c3ccccc3NC2c2cc(Br)ccc2O)cc1 (stereo unspecified) | inactive | – |
| N=c1c2c(-c3ccccc3)c(-c3ccccc3)n(Cc3ccccc3)c2ncn1CCO | inconclusive: 79.4 µM [inhibitor, partial curve] | – |
| COc1ccc(OC)c(S(=O)(=O)N2CCC(C(=O)NCc3cccnc3)CC2)c1 | inactive | – |
| NS(=O)(=O)c1cccc(NC(=O)c2cc3ccccc3o2)c1 | inconclusive: 14.1 µM [inhibitor, full curve] | – |
| O=[N+]([O-])c1ccc(-[n+]2ccc3ccccc3c2)c([N+](=O)[O-])c1 | inconclusive: 31.6 µM [inhibitor, full curve, poor fit] | – |
| Cn1cc(Cl)c(-c2n[nH]c(=S)n2-c2ccc(F)cc2)n1 | inconclusive: 89.1 µM [inhibitor, single point] | – |
| COc1cc(NC(=S)N2CCC(C(O)(c3ccccc3)c3ccccc3)CC2)cc(OC)c1 | inconclusive: 31.6 µM [inhibitor, partial curve] | – |
| CCN(CC)CC(O)COc1ccc2c(c1)c(C(C)=O)c(C)n2-c1ccccc1 (stereo unspecified) | inactive | – |
| Cc1nc(NCCOc2ccccc2)sc1C(=O)Nc1ccccc1 | inactive | – |
| O=C(c1ccc(F)cc1)C1CCN(Cc2ccccc2)CC1 | inactive | – |
| CCCC(=O)N1CCc2[nH]c3ccccc3c2C1 | inconclusive: 50.1 µM [inhibitor, partial curve] | – |
| Cc1ccc2nc3c(c(Nc4ccc(C)c(C)c4)c2c1)CCC3 | inconclusive: 50.1 µM [inhibitor, partial curve] | – |
| CCCN1CCC(=NNc2ccc(S(=O)(=O)N3CCOCC3)cc2[N+](=O)[O-])CC1 | inconclusive: 50.1 µM [inhibitor, partial curve] | – |
| CC1(C)Cc2ccccc2C(N/N=C/c2cccc(F)c2)=N1 | inconclusive: 89.1 µM [inhibitor, single point] | – |
| CC(=O)Oc1cccc(/C=C2\C=C(c3ccc(C)cc3)OC2=O)c1 | inconclusive: 14.1 µM [inhibitor, full curve] | – |
| CCC1C(=O)N=C(SCC(=O)Nc2ccc(Br)cn2)NC1=O (stereo unspecified) | inconclusive: 28.2 µM [inhibitor, single point] | – |
| Cn1c(SCC(=O)N/N=C/C=C\c2ccco2)nc2ccccc21 | active: 56.2 µM | – |
| CN(C)c1ccc(NC(=O)Cn2cc(S(=O)(=O)Cc3ccccc3Cl)c3ccccc32)cc1 | inconclusive: 17.8 µM [inhibitor, full curve] | – |
| Cc1ccc(C(=O)NC(=O)OCCn2c(C)cnc2[N+](=O)[O-])cc1 | inactive | – |
| O=C(NCc1ccccc1)c1cccc(OCC(=O)N2CCN(C(=O)c3ccco3)CC2)c1 | active: 39.8 µM | – |
| Cc1[nH]n(-c2ccccc2)c(=O)c1C=Nc1ccc(S(=O)(=O)Nc2nccs2)cc1 | inconclusive: 50.1 µM [inhibitor, single point] | – |
| Cc1cc(C(=O)CSc2nnnn2C)c(C)n1Cc1ccco1 | inconclusive: 56.2 µM [inhibitor, partial curve, poor fit] | – |
| Cc1ccc(C)c(OCc2n[nH]c(=S)o2)c1 | inconclusive: 28.2 µM [inhibitor, partial curve] | – |

| SMILES | Potency | activity change, negative = inhibition |
| --- | --- | --- |
| Cc1c(C(=O)O)cccc1-c1ccc(/C=N/Nc2ccc(Br)cc2)o1 | inconclusive: 44.7 µM [inhibitor, single point] | – |
| CCOCCc1nn2c(=O)cc(COC(=O)c3ccccc3NC(=O)c3ccc(C)cc3)nc2s1 | inactive | – |
| COc1ccccc1N1CC(C)C(=O)NC1=S (stereo unspecified) | inconclusive: 39.8 µM [inhibitor, single point] | – |
| COc1ccc2c(c1)[C@H]1[C@H](CO2)[C@H](c2ccccc2)[C@]2(C)C(=O)Nc3ccc(Br)cc3C(=O)N12 | inconclusive: 25.1 µM [inhibitor, full curve] | – |
| O=C1CC(c2ccco2)Sc2nc3ccccc3n21 (stereo unspecified) | active: 79.4 µM | – |
| CCC(C(=O)Nc1ccc(C(C)C)cc1)n1nc(C)n2c(cc3cc(C)ccc32)c1=O (stereo unspecified) | inactive | – |
| O=C(CN1C(=O)NC2(CCCC2)C1=O)Nc1nc2c(F)cc(F)cc2s1 | inactive | – |
| Cc1cccc(NC(=O)Cn2nnc(C(=O)NCc3cccs3)c2N)c1 | inconclusive: 12.6 µM [inhibitor, full curve, poor fit] | – |
| C=CCn1c(-c2csc(-c3ccc(OC)c(OC)c3)n2)n[nH]c1=S | active: 7.94 µM | – |
| CCN(CC)C(=O)CC(c1ccccc1)c1ccco1 (stereo unspecified) | inactive | – |
| CN(C)c1ccc(CNC(=O)C2CCCN(S(=O)(=O)c3ccc4c(c3)CCCC(=O)N4)C2)cc1 (stereo unspecified) | inconclusive: 56.2 µM [inhibitor, partial curve] | – |
| O=c1c2ccc([N+](=O)[O-])cc2ncn1CCOc1cccc(Br)c1 | inconclusive: 25.1 µM [inhibitor, partial curve] | – |
| CSCCC(NC(=O)c1ccccc1Cl)C(=O)Nc1ccncc1 (stereo unspecified) | inactive | – |
| CCc1n[nH]c(=S)n1/N=C/c1cccc2ccccc12 | inconclusive: 79.4 µM [inhibitor, single point] | – |
| CCSCc1nnc(SCC(=O)Nc2nc3ccccc3s2)n1C | inconclusive: 89.1 µM [inhibitor, single point] | – |
| COC(=O)c1ccc(C2NCCc3cc(OC)c(OC)cc32)cc1 (stereo unspecified) | inactive | – |
| Cc1ccc(Nc2nc(NCCO)nc3c2cnn3C)cc1Cl | inconclusive: 14.1 µM [inhibitor, full curve, poor fit] | – |
| COC(=O)c1ccc2[nH]c3c(c2c1)CC(C)CC3 (stereo unspecified) | inconclusive: 25.1 µM [inhibitor, full curve] | – |
| COCc1cc(=O)[nH]c(/N=C(\N)Nc2cccc(Cl)c2)n1 | – | inactive: -6.01% [at 11.4 µM] |
| O=C(CSc1nc(-c2ccccc2)nc2ccc(F)cc12)Nc1cccc(C(=O)O)c1 | inconclusive: 56.2 µM [inhibitor, partial curve] | – |
| COC(=O)c1ccc(NC(=S)NCc2ccco2)cc1 | inactive | – |
| COc1ccc(NC(=O)Nc2cccs2)cc1OC | inconclusive: 56.2 µM [inhibitor, partial curve] | – |
| COc1ccc(CCNC(=O)COC(=O)CSc2ccc(C(N)=O)cc2[N+](=O)[O-])cc1OC | inactive | – |
